The other results are listed elsewhere or left out.

The results in this text go back to the supplement of paper PMC8728848.

Assay in all cases: glycan array binding signal (z-score within array); higher = stronger binding
Common to all, as to conditions: glycan notation: IUPAC condensed, linker removed

For assay [1], the target named is GlcNAc(b1-3)Gal(b1-4)GlcNAc(b1-3)Gal(b1-4)GlcNAc(b1-2)Man(a1-3)[GlcNAc(b1-3)Gal(b1-4)GlcNAc(b1-3)Gal(b1-4)GlcNAc(b1-2)Man(a1-6)]Man(b1-4)GlcNAc(b1-4)[Fuc(a1-6)]GlcNAc. Put shortly:
(§1)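 Arrays were curated from the Consortium for Functional Glycomics database, 3228 in total, and kept only where the protein sequence was available. Binding is expressed as a within-array Z-score. This score was averaged across arrays of the same protein sequence at different concentrations or buffers and across linkers, and negative values can be read as non-binding.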

The target in assay [2] is GlcNAc(b1-3)Gal(b1-4)GlcNAc(b1-3)Gal(b1-4)GlcNAc(b1-2)[GlcNAc(b1-3)Gal(b1-4)GlcNAc(b1-3)Gal(b1-4)GlcNAc(b1-6)]Man(a1-6)[GlcNAc(b1-3)Gal(b1-4)GlcNAc(b1-3)Gal(b1-4)GlcNAc(b1-2)Man(a1-3)]Man(b1-4)GlcNAc(b1-4)[Fuc(a1-6)]GlcNAc. Put shortly:
as §1

In assay [3] the target is GlcNAc(b1-3)Gal(b1-4)GlcNAc(b1-3)Gal(b1-4)GlcNAc(b1-3)Gal(b1-4)GlcNAc(b1-2)Man(a1-3)[GlcNAc(b1-3)Gal(b1-4)GlcNAc(b1-3)Gal(b1-4)GlcNAc(b1-3)Gal(b1-4)GlcNAc(b1-2)Man(a1-6)]Man(b1-4)GlcNAc(b1-4)GlcNAc. Put shortly:
as §1

Assay [4] has as its target GlcNAc(b1-3)Gal(b1-4)GlcNAc(b1-3)Gal(b1-4)GlcNAc(b1-3)Gal(b1-4)GlcNAc(b1-2)Man(a1-3)[GlcNAc(b1-3)Gal(b1-4)GlcNAc(b1-3)Gal(b1-4)GlcNAc(b1-3)Gal(b1-4)GlcNAc(b1-2)Man(a1-6)]Man(b1-4)GlcNAc(b1-4)[Fuc(a1-6)]GlcNAc. The method in brief: as §1
Assay [5] addresses GlcNAc(b1-3)Gal(b1-4)GlcNAc(b1-3)Gal(b1-4)GlcNAc(b1-3)Gal(b1-4)GlcNAc(b1-2)[GlcNAc(b1-3)Gal(b1-4)GlcNAc(b1-3)Gal(b1-4)GlcNAc(b1-3)Gal(b1-4)GlcNAc(b1-6)]Man(a1-6)[GlcNAc(b1-3)Gal(b1-4)GlcNAc(b1-3)Gal(b1-4)GlcNAc(b1-3)Gal(b1-4)GlcNAc(b1-2)Man(a1-3)]Man(b1-4)GlcNAc(b1-4)[Fuc(a1-6)]GlcNAc. Put shortly: as §1
Assay [6] concerns the target GlcNAc(b1-3)Gal(b1-4)GlcNAc(b1-3)Gal(b1-4)GlcNAc(b1-3)Gal(b1-4)GlcNAc(b1-3)Gal(b1-4)GlcNAc(b1-2)Man(a1-3)[GlcNAc(b1-3)Gal(b1-4)GlcNAc(b1-3)Gal(b1-4)GlcNAc(b1-3)Gal(b1-4)GlcNAc(b1-3)Gal(b1-4)GlcNAc(b1-2)Man(a1-6)]Man(b1-4)GlcNAc(b1-4)GlcNAc. Put shortly:
as §1

In assay [7] the target is GlcNAc(b1-3)Gal(b1-4)GlcNAc(b1-3)Gal(b1-4)GlcNAc(b1-3)Gal(b1-4)GlcNAc(b1-3)Gal(b1-4)GlcNAc(b1-2)Man(a1-3)[GlcNAc(b1-3)Gal(b1-4)GlcNAc(b1-3)Gal(b1-4)GlcNAc(b1-3)Gal(b1-4)GlcNAc(b1-3)Gal(b1-4)GlcNAc(b1-2)Man(a1-6)]Man(b1-4)GlcNAc(b1-4)[Fuc(a1-6)]GlcNAc. Put shortly:
as §1

Assay [8] deals with GlcNAc(b1-3)Gal(b1-4)GlcNAc(b1-3)Gal(b1-4)GlcNAc(b1-3)Gal(b1-4)GlcNAc(b1-3)Gal(b1-4)GlcNAc(b1-2)[GlcNAc(b1-3)Gal(b1-4)GlcNAc(b1-3)Gal(b1-4)GlcNAc(b1-3)Gal(b1-4)GlcNAc(b1-3)Gal(b1-4)GlcNAc(b1-6)]Man(a1-6)[GlcNAc(b1-3)Gal(b1-4)GlcNAc(b1-3)Gal(b1-4)GlcNAc(b1-3)Gal(b1-4)GlcNAc(b1-3)Gal(b1-4)GlcNAc(b1-2)Man(a1-3)]Man(b1-4)GlcNAc(b1-4)[Fuc(a1-6)]GlcNAc. Put shortly: as §1
The target in assay [9] is GlcNAc(b1-3)Gal(b1-4)GlcNAc(b1-3)Gal(b1-4)GlcNAc(b1-3)GalNAc. Put shortly:
as §1

Assay [10] deals with GlcNAc(b1-3)Gal(b1-4)GlcNAc(b1-3)GalNAc. The method in brief:
as §1

Assay [11] deals with GlcNAc(b1-3)Gal(b1-4)GlcNAc(b1-3)[GlcNAc(b1-3)Gal(b1-4)GlcNAc(b1-3)]GalNAc. The method in brief: as §1
Assay [12] has as its target GlcNAc(b1-3)Gal(b1-4)GlcNAc(b1-6)[Gal(b1-3)]GalNAc. The method in brief:
as §1

The target in assay [13] is GlcNAc(b1-3)Gal(b1-4)GlcNAc(b1-6)[GlcNAc(b1-3)Gal(b1-3)]GalNAc. Put shortly:
as §1

Assay [14] has as its target GlcNAc(b1-3)Gal(b1-4)GlcNAc(b1-6)[GlcNAc(b1-3)]Gal(b1-4)GlcNAc. The method in brief:
as §1

Assay [15] concerns the target GlcNAc(b1-3)GalNAc. Put shortly:
as §1

Assay [16] deals with GlcNAc(b1-3)Man. The method in brief: as §1
Assay [17] has as its target GlcNAc(b1-3)[GlcNAc(b1-4)][GlcNAc(b1-6)]GlcNAc. The method in brief:
as §1

The target in assay [18] is GlcNAc(b1-3)[GlcNAc(b1-6)]Gal(b1-4)GlcNAc. The method in brief: as §1
In assay [19] the target is GlcNAc(b1-3)[GlcNAc(b1-6)]GalNAc. Put shortly:
as §1

Assay [20] concerns the target GlcNAc(b1-4)Gal(b1-4)GlcNAc. Put shortly: as §1
The target of assay [21] is GlcNAc(b1-4)GlcNAc. The method in brief:
as §1

For assay [22], the target named is GlcNAc(b1-4)GlcNAc(b1-4)GlcNAc. The method in brief: as §1
Assay [23] deals with GlcNAc(b1-4)GlcNAc(b1-4)GlcNAc(b1-4)GlcNAc(b1-4)GlcNAc. Put shortly:
as §1

B1: Pwp4 (Candida glabrata) (protein)
chain: MGSSHHHHHHSSGLVPRGSHMASVGNPITVSNVCSFPKNWHRTAGFRALTARLGIGIQSDSYKELLNYPGTFQLTTQQSSTTKPNFQISGLVGNIYGLTIVPSYLLVELTGYFVPPVSGEYTFSLEGSDDAAIIFIANPSTFKCGHVEDWPTAYDNDVTVTESIHATRTIYMIEGVAYPIRIAYYNGLSLGKLQASFTDPEGVKRVDWNGYIWRYDSCDTCSYV
Regarding B1, the “glycan array binding signal (z-score)” value in assay [1] is 1.26; in assay [2] it was 4.62; in assay [3] it was 1.16; in assay [4], 0.082; in assay [5], 5.36; in assay [6] it was -0.02. Further, the “glycan array binding signal (z-score)” value in [7] is -0.153; in assay [8], 4.3; in assay [9], -0.617; in assay [10], 0.261; in assay [11] it was 0.069; in [12], -0.456. The “glycan array binding signal (z-score)” value in assay [13] was -0.359; in assay [14], -0.353; in [15], -0.484; in assay [16], -0.401; in [17], -0.323; in assay [18], 0.059. For the same molecule, the “glycan array binding signal (z-score)” value in assay [19] is -0.726; in [20], -0.455; in assay [21], -0.258; in assay [22], -0.431; in [23] it was -0.442.
